Measured values as given in patent US20230159453A1 (COCRYSTAL PHARMA, INC., priority 2020, published 2023).

Each molecule was assayed against Noro protease (Norovirus, UniProt Q83883) (assay: Norovirus protease inhibition assay (Noro-Norwalk FRET protease assay)). Settings: IC50 (μM), peptide substrate 10 μM, 90 minutes at 37° C., compounds 200 μM to 10.2 nM.

Row | SMILES | IC50
1 | CCOP(=O)(OCC)C(O)C(CC1CC2(CCN(C(C)=O)CC2)NC1=O)NC(=O)[C@H](CC(C)C)NC(=O)OCC(C)(C)c1cccc(Cl)c1 (stereo partly drawn) [Compound C84, 2-(3-Chlorophenyl)-2-methylpropyl ((2S)-1-((3-(8-acetyl-2-oxo-1,8-diazaspiro[4.5]decan-3-yl)-1-(diethoxyphosphoryl)-1-hydroxypropan-2-yl)amino)-4-methyl-1-oxopentan-2-yl)carbamate] | 190 µM
2 | CC(C)C[C@H](NC(=O)OC1CCN(C(=O)OC(C)(C)C)c2ccccc21)C(=O)N[C@@H](C[C@@H]1CCNC1=O)C(=O)C(=O)NCc1ccccn1 (stereo partly drawn) [Compound C86, Tert-butyl 4-((((S)-1-(((S)-3,4-dioxo-1-((S)-2-oxopyrrolidin-3-yl)-4-((pyridin-2-ylmethyl)amino)butan-2-yl)amino)-4-methyl-1-oxopentan-2-yl)carbamoyl)oxy)-3,4-dihydroquinoline-1(2H)-carboxylate] | > 200 µM
3 | CC(C)C[C@H](NC(=O)OC1(Cc2cccc(Cl)c2)CC1)C(=O)N[C@@H](C[C@@H]1CCNC1=O)C(=O)C(N)=O [Compound C88, 1-(3-Chlorobenzyl) cyclopropyl ((S)-1-(((S)-4-amino-3,4-dioxo-1-((S)-2-oxopyrrolidin-3-yl)butan-2-yl)amino)-4-methyl-1-oxopentan-2-yl)carbamate] | > 200 µM
4 | CC(C)C[C@H](NC(=O)OCC(C)(C)c1cccc(Cl)c1)C(=O)N[C@@H](C[C@@H]1CCNC1=O)C(=O)C(N)=O [Compound C90, 2-(3-chlorophenyl)-2-methylpropyl ((S)-1-(((S)-4-amino-3,4-dioxo-1-((S)-2-oxopyrrolidin-3-yl)butan-2-yl)amino)-4-methyl-1-oxopentan-2-yl)carbamate] | 136 µM
5 | CCOP(=O)(OCC)C(O)C(CC1CC2(CCN(C(C)=O)CC2)NC1=O)NC(=O)[C@H](CC(C)C)NC(=O)c1cc2ccccc2[nH]1 (stereo partly drawn) [Compound C94, Diethyl (2-((S)-2-(1H-indole-2-carboxamido)-4-methylpentanamido)-3-(8-acetyl-2-oxo-1,8-diazaspiro[4.5]decan-3-yl)-1-hydroxypropyl)phosphonate] | 156 µM
6 | CCOP(=O)(OCC)C(O)C(CC1CC2(CCN(C(C)=O)CC2)NC1=O)NC(=O)[C@H](CC(C)C)NC(=O)OCC1CCC(F)(F)CC1 (stereo partly drawn) [Compound C95, (4,4-Difluorocyclohexyl)methyl ((2S)-1-((3-(8-acetyl-2-oxo-1,8-diazaspiro[4.5]decan-3-yl)-1-(diethoxyphosphoryl)-1-hydroxypropan-2-yl)amino)-4-methyl-1-oxopentan-2-yl)carbamate] | 116 µM
7 | CC(C)C[C@H](NC(=O)OCC(C)(C)c1cccc(Cl)c1)C(=O)N[C@H](C=O)C[C@@H]1CCNC1=O [Compound C96, 2-(3-Chlorophenyl)-2-methylpropyl ((S)-4-methyl-1-oxo-1-(((S)-1-oxo-3-((S)-2-oxopyrrolidin-3-yl)propan-2-yl)amino)pentan-2-yl)carbamate] | 4.1 µM
8 | CC(C)C[C@H](NC(=O)N(Cc1ccccc1)C1CCN(C(=O)OC(C)(C)C)CC1)C(=O)N[C@@H](C[C@@H]1CCNC1=O)C(=O)C(=O)NC1CC1 [Compound C98, Tert-butyl 4-(1-benzyl-3-((S)-1-(((S)-4-(cyclopropylamino)-3,4-dioxo-1-((S)-2-oxopyrrolidin-3-yl)butan-2-yl)amino)-4-methyl-1-oxopentan-2-yl)ureido)piperidine-1-carboxylate] | > 200 µM
9 | CC(C)C[C@H](NC(=O)OC(Cc1ccccc1)c1ccccc1)C(=O)N[C@@H](C[C@@H]1CCNC1=O)C(=O)C(N)=O (stereo partly drawn) [Compound C100, 1,2-Diphenylethyl ((S)-1-(((S)-4-amino-3,4-dioxo-1-((S)-2-oxopyrrolidin-3-yl)butan-2-yl)amino)-4-methyl-1-oxopentan-2-yl)carbamate] | > 200 µM
10 | CC(C)C[C@H](NC(=O)OCC(C)(C)c1cccc(Cl)c1)C(=O)N[C@H](CO)C[C@@H]1CCNC1=O [Compound C101, 2-(3-Chlorophenyl)-2-methylpropyl ((S)-1-(((S)-1-hydroxy-3-((S)-2-oxopyrrolidin-3-yl)propan-2-yl)amino)-4-methyl-1-oxopentan-2-yl)carbamate] | > 200 µM
11 | CC(=O)N1CC2(CC(CC(C=O)NC(=O)[C@H](CC(C)C)NC(=O)OCc3cccc(Cl)c3)C(=O)N2)C1 (stereo partly drawn) [Compound C102, 3-chlorobenzyl ((2S)-1-((1-(2-acetyl-6-oxo-2,5-diazaspiro[3.4]octan-7-yl)-3-oxopropan-2-yl)amino)-4-methyl-1-oxopentan-2-yl)carbamate] | 6.9 µM
12 | CC(C)(COC(=O)N[C@H](C(=O)N[C@H](C=O)C[C@@H]1CCNC1=O)C(C)(C)C)c1cccc(Cl)c1 [Compound C103, 2-(3-Chlorophenyl)-2-methylpropyl ((S)-3,3-dimethyl-1-oxo-1-(((S)-1-oxo-3-((S)-2-oxopyrrolidin-3-yl)propan-2-yl)amino)butan-2-yl)carbamate] | 21.3 µM
13 | CC(C)C[C@H](NC(=O)OC(Cc1cccc(Cl)c1)c1ccccc1)C(=O)N[C@H](C=O)C[C@@H]1CCNC1=O (stereo partly drawn) [Compound C104, 2-(3-Chlorophenyl)-1-phenylethyl ((S)-4-methyl-1-oxo-1-(((S)-1-oxo-3-((S)-2-oxopyrrolidin-3-yl)propan-2-yl)amino)pentan-2-yl) carbamate] | 2.8 µM
14 | CC(C)(c1cccc(Cl)c1)C(OC(=O)N[C@@H](CC1CCCCC1)C(=O)N[C@H](C=O)C[C@@H]1CCNC1=O)c1cccc(F)c1 (stereo partly drawn) [Compound C105, 2-(3-Chlorophenyl)-1-(3-fluorophenyl)-2-methylpropyl ((S)-3-cyclohexyl-1-oxo-1-(((S)-1-oxo-3-((S)-2-oxopyrrolidin-3-yl)propan-2-yl)amino)propan-2-yl)carbamate] | 2.7 µM
15 | CC(C)(c1cccc(Cl)c1)C(OC(=O)N[C@@H](CC1CCCCC1)C(=O)N[C@H](C=O)C[C@@H]1CCNC1=O)c1cccc(Cl)c1 (stereo partly drawn) [Compound C106, 1,2-Bis(3-chlorophenyl)-2-methylpropyl ((S)-3-cyclohexyl-1-oxo-1-(((S)-1-oxo-3-((S)-2-oxopyrrolidin-3-yl)propan-2-yl)amino)propan-2-yl)carbamate] | 1.8 µM
16 | CC(C)C[C@H](NC(=O)OCC1CCC(F)(F)CC1)C(=O)NC(C)(C=O)CC1CCNC1=O (stereo partly drawn) [Compound C107, (4,4-Difluorocyclohexyl) methyl ((2S)-4-methyl-1-((2-methyl-1-oxo-3-(2-oxopyrrolidin-3-yl)propan-2-yl)amino)-1-oxopentan-2-yl) carbamate] | 85.5 µM
17 | CC(C)C[C@H](NC(=O)OC(c1ccccc1)C(C)(C)c1cccc(Cl)c1)C(=O)N[C@H](C=O)C[C@@H]1CCNC1=O (stereo partly drawn) [Compound C108, 2-(3-Chlorophenyl)-2-methyl-1-phenylpropyl ((S)-4-methyl-1-oxo-1-(((S)-1-oxo-3-((S)-2-oxopyrrolidin-3-yl)propan-2-yl)amino)pentan-2-yl) carbamate] | 0.979 µM
18 | O=C[C@H](C[C@@H]1CCNC1=O)NC(=O)[C@H](CC1CCCCC1)NC(=O)OC(Cc1cccc(Cl)c1)c1ccccc1 (stereo partly drawn) [Compound C109, 2-(3-Chlorophenyl)-1-phenylethyl ((S)-3-cyclohexyl-1-oxo-1-(((S)-1-oxo-3-((S)-2-oxopyrrolidin-3-yl)propan-2-yl)amino)propan-2-yl)carbamate] | 1.4 µM
